PubChem BioAssay AID1671188 (National Center for Advancing Translational Sciences (NCATS), 2021)
In all, about 100,000 compounds went through this assay and about 250 (0.25%) were called active. Inconclusive means that the source gave no clear call. Such entries were picked first, then a sample of the others. The call rests on the fitted dose curve; in most records, active means well fitted inhibition curve with a large enough effect; inconclusive means small, poorly fitted or top-dose-only effect; inactive means flat fitted curve, though single readings scatter. Potencies of inconclusive entries are left out as doubtful fits.

Molecular target: Alanine aminotransferase 2 (Homo sapiens) (UniProt Q8TD30)
Assay: Primary qHTS assay for inhibitors of Glutamate pyruvate transaminase 2 (GPT2); further: nearly all actives have a fitted effect of over 60% in size
Conditions: Recombinant GPT2, coupled pyruvate oxidase/HRP Amplex Red fluorescence; activity change, negative = inhibition: at 57.7 µM (top of the series) unless noted; series mostly up to 57.7 µM
Method in brief: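 GPT2 10ng/uL, a-KG 250uM, L-Ala 2mM, HEPES pH7.5 + 0.0001% Tween; 30 min RT. Then Amplex mix (PO/HRP/ThPP), 30 min RT dark, fluorescence. AOA 50uM used as positive control.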
On the % scale 0 is the no-effect control and ±100 the full control effect; potency means the concentration at half of the fitted maximal effect; tags describe the fitted curve by direction and shape.

Chain of UniProt Q8TD30 (Q8TD30 whole entry, looked up): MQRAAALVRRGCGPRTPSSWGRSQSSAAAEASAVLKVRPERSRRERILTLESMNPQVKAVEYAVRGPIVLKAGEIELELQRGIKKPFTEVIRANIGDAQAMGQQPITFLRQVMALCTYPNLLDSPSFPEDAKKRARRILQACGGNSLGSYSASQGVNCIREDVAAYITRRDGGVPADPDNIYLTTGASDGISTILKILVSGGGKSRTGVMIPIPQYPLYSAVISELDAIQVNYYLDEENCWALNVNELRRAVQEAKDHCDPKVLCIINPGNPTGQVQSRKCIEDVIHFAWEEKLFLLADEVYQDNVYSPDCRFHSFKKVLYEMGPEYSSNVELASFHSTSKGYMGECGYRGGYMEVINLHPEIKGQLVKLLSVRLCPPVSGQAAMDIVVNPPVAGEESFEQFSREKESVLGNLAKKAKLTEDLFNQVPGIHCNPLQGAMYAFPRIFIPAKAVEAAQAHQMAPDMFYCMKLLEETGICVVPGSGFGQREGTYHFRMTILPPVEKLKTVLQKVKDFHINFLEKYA

SMILES	Potency	activity change, negative = inhibition	outcome
N[C@@H](Cc1cc(I)c(O)c(I)c1)C(=O)O	inconclusive [inhibitor, single point]	–	–
COc1cccc(N2C(=O)NC(=NC3CCCCC3)C23CCN(Cc2ccc(N(C)C)cc2)C3)c1 (stereo not given)	inconclusive [inhibitor, single point]	–	–
COc1cc(F)ccc1-c1cc(C(=O)NCc2c(C)cc(C)[nH]c2=O)c2c(c1)N(C(C)C)CCO2	inconclusive [inhibitor, single point]	–	–
Cc1cn2nc(C(=O)Nc3ccc(F)c(F)c3)cc2c(N(C)Cc2ccccc2)n1	–	inactive: 3.02%	–
COc1ccc(N2CC3CCC(C2)N3Cc2ccccc2)cc1	inconclusive [inhibitor, single point]	–	–
COC(=O)[C@@H]1Cc2c([nH]c3ccccc23)[C@H]2C[C@@H](N3CCCCC3)C[C@@H](c3ccccc3F)N21	–	inactive: -6.97%	–
CCC[C@@H]1CN(C(=O)c2cccc(N3CCS(=O)(=O)CC3)c2)C[C@H]1N(C)C	inconclusive [inhibitor, single point]	–	–
O=C1CCC2(CCCO2)CCN1Cc1ccc(F)cc1 (stereo not given)	inconclusive [inhibitor, partial curve, poor fit]	–	–
COc1ccc(CCN(C)CCCOc2ccc(S(=O)(=O)c3[nH]c4ccccc4c3C(C)C)cc2)cc1OC	inconclusive [inhibitor, single point]	–	–
Cc1ccc2c(C(=O)NCc3cc(F)cc(F)c3)cc(NC(=O)C(C)C)cc2n1	inconclusive [inhibitor, single point]	–	–
COc1ccccc1CN1CCNc2cnc(Nc3ccccc3)cc2C1	inconclusive [inhibitor, full curve, poor fit]	–	–
COc1ccccc1C(=O)Nc1cc(-c2ccncc2)nn1-c1ccccc1	–	–	inactive
COc1ncccc1-c1cc2c(ccn2CC2CCN(C)CC2)c(N2CCOCC2)n1	inconclusive [inhibitor, single point]	–	–
CCN1CCCC12Cc1ccccc1CN([S+](=O)([O-])c1ccccc1)C2 (stereo not given)	–	inactive: -2.88%	–
CO[C@H]1c2cc(C(C)C)c(O)c(O)c2[C@@]23CCCC(C)(C)C2[C@@H]1OC3=O (stereo not given in full)	inconclusive [inhibitor, partial curve, poor fit]	–	–
Cc1oc2ccn(Cc3ccccc3F)c(=O)c2c1C(=O)NCC1CCCO1 (stereo not given)	inconclusive [inhibitor, partial curve, poor fit]	–	–
CC(=O)N[C@H]1CC[C@]2(C)CC[C@@H](C(C)C(=O)NC3CCCCC3)[C@H](O)[C@H]2[C@@H]1C (stereo not given in full)	–	inactive: -28.7% [at 88.5 µM]	–
O=C(COc1ccccc1)N1CCC(N2CC3CC(C2)[C@H]2CCCC(=O)N2C3)CC1 (stereo not given in full)	inconclusive [inhibitor, partial curve, poor fit]	–	–
Cc1ccc(C2Cn3nnc(C(=O)N4CCC(C(=O)NCc5ccco5)CC4)c3CO2)cc1 (stereo not given)	–	inactive: 1.31%	–
O=C(c1ccccc1)N1CCCC(c2nc(C3CCOCC3)no2)C1 (stereo not given)	–	–	inactive

SMILES	Potency	activity change, negative = inhibition	outcome
COCC(=O)NC1CCC12CCN(C(=O)CCCc1ccccc1)CC2 (stereo not given)	inconclusive [inhibitor, single point]	–	–
O=C(Nc1ccc([C@@H](O)[C@H]2COCC(=O)N2Cc2ccc(F)cc2)cc1)c1cccs1	inconclusive [inhibitor, single point]	–	–
CC(C)(C)c1coc([C@@H]2COCCN2Cc2cnc[nH]2)n1	inconclusive [inhibitor, single point]	–	–
O=C(c1ccc(C(F)(F)F)cc1)N1CCN(C(=O)c2nc3cccnc3n(C3CCCC3)c2=O)CC1	–	inactive: 2.38%	–
COc1cccc([S+](=O)([O-])N2CC(N(C)c3ccccc3C)C2)c1	inconclusive [inhibitor, full curve, poor fit]	–	–
CCC(C)NC(=O)Cn1ccn2nc(-c3ccc(F)cc3)c(CO)c2c1=O (stereo not given)	inconclusive [inhibitor, single point]	–	–
Cc1cnc(C(=O)NC2C[C@H]3CC[C@@H](C2)N3C(=O)Nc2cccc(C(F)(F)F)c2)cn1 (stereo not given in full)	inconclusive [inhibitor, single point]	–	–
COCCn1ncc(N2CCC(C(=O)N3CCc4ccccc4C3)C2)cc1=O (stereo not given)	–	–	inactive
O=C1N(Cc2ccc(F)cc2)CCCC12CCN(c1nc3ccccc3o1)C2 (stereo not given)	inconclusive [inhibitor, single point]	–	–
COc1ccc(-c2nnc(C[C@@H]3C[C@@H](C(C)C)[C@H](CN4CCN(C)CC4)C=C3C)o2)cc1	inconclusive [inhibitor, single point]	–	–
CO[C@H]1C(=O)N(C(C)C)[C@H]1C1CCN(C(=O)Cc2ccccc2)CC1	–	inactive: 4.88%	–
O=C(NCc1ccccc1)c1ccc2nccn2c1	inconclusive [inhibitor, single point]	–	–
CC(C)(C)n1ccc(C(=O)NC2CC(c3nnc(CO)n3C3CC3)C2)c1 (stereo not given)	–	inactive: 4.89%	–
CC(C)C[C@@H](NC(=O)C1=C[C@@H](NC(=O)c2cccs2)[C@@H](O)[C@H](O)C1)C(N)=O	inconclusive [inhibitor, single point]	–	–
CCO[C@H]1CN(Cc2ccc(OC)c(OCc3cccc(F)c3)c2)C[C@@H]1O	inconclusive [inhibitor, single point]	–	–
O=C(Cc1ccccc1Cl)NC1CCN(c2cc(-c3cccs3)[nH]n2)C1 (stereo not given)	inconclusive [inhibitor, partial curve, poor fit]	–	–
N#Cc1ccccc1S(=O)(=O)N[C@H]1CO[C@H]2[C@@H]1OC[C@H]2OC(=O)Nc1ccc(Oc2ccccc2)cc1	–	inactive: 1.19%	–
CCC(C)NC(=O)c1ccc2c(c1)CC(=O)N2Cc1ccccc1 (stereo not given)	inconclusive [inhibitor, single point]	–	–
COc1cccc(C(=O)NC2CCCN(c3nc4ncccc4o3)C2)c1 (stereo not given)	inconclusive [inhibitor, single point]	–	–
COc1ccc(-c2ccc3c(n2)CN(C)C(=O)CO3)cc1	inconclusive [inhibitor, single point]	–	–
